Measured values from the supplement of paper PMC3334620.
The full ranking holds about 33,000 sequences; the median of “E-score (-0.5 to 0.5)” is about -0.012, and the highest 2% start at about 0.27. The list shows a part of the results.

target: T1, Vhr1 (UniProt P40522); assay: PBM E-score (8-mer binding enrichment) (E-score (-0.5 to 0.5)); higher = stronger / more preferred TF binding; most listed sequences are background and not binding sites; settings: protein concentration: 200 nM; construct: GST-full length
T1 sequence: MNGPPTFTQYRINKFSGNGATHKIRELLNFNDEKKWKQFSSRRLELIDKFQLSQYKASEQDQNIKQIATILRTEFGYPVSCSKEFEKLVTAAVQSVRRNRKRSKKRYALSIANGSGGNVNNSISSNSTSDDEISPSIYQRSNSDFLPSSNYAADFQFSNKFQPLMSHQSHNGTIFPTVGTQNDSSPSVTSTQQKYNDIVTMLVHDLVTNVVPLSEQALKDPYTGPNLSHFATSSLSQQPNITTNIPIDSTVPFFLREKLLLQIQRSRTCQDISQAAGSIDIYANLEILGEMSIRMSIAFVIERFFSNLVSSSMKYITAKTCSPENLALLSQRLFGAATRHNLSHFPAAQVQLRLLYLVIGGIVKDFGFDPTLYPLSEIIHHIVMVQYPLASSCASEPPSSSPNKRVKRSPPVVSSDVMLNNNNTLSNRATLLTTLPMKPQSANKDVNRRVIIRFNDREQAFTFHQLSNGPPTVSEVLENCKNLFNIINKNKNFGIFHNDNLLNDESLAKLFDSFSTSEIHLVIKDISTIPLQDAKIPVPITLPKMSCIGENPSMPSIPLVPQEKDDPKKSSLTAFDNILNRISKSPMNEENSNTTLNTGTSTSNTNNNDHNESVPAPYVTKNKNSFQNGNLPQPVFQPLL
In short: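 Yeast transcription factors, full-length or as DNA-binding domains, were expressed with a GST tag using PURExpress in vitro transcription/translation. At about 100-200 nM they were applied to universal all-10-mer Agilent arrays, double-stranded by primer extension on fresh or once-stripped slides. Fluorescent anti-GST detected bound protein, and masliner normalised the scans. E-scores for ungapped eight-base words, pooled with reverse complements, came from the Universal PBM Analysis Suite.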

Row | Sequence | PBM E-score
1 | AGATTGCA | -0.0423
2 | CGTAGATA | -0.137
3 | CCGGGCAA | -0.0163
4 | CCCGCGTC | 0.19
5 | GAGTAGCC | -0.00716
6 | TCCTTTAA | -0.164
7 | CGAGTGAC | 0.0621
8 | GGGAGACA | 0.123
9 | AATGTGCC | -0.213
10 | GCGTTACC | -0.138
11 | CCGCGAGC | -0.0165
12 | GTGTCGCA | -0.0584
13 | AATGGGTA | 0.0928
14 | GCCCCTCC | 0.331
15 | CCTGCATA | -0.0346
16 | CCCAGTAC | -0.0361
17 | AGGACTTA | -0.0181
18 | AACGGTAT | -0.212
19 | CGCGGATC | 0.0704
20 | CGCACAGC | -0.0228
21 | AAGGGGGC | -0.176
22 | AGTGAAGC | -0.123

Row | Sequence | PBM E-score
23 | GGTAAACA | 0.118
24 | AAATCTGG | -0.00214
25 | AGCTGAAC | -0.129
26 | AGTTCCCC | -0.0101
27 | AAGTAAGG | -0.158
28 | AAAGCATC | 0.037
29 | TACTCGAA | -0.0455
30 | ATGGGGAA | 0.0181
31 | GTGATCAC | 0.245
32 | AATCGACC | -0.119
33 | CTGCGCGA | 0.0504
34 | ATATGTGG | 0.132
35 | AGACAACT | -0.0266
36 | GCTTCGAA | -0.109
37 | CGTCATAC | 0.189
38 | GAGAGAGA | -0.0265
39 | GCCTTTAA | -0.244
40 | AATTCGGC | -0.158
41 | TAAGGTAA | -0.00935
42 | GCTGCAGC | 0.00163
43 | GCGGATTA | 0.00137
44 | CGGGTTAC | -0.0592

Row | Sequence | PBM E-score
45 | ACTTTGCT | -0.211
46 | CTTCAGGC | -0.108
47 | GAGGTGTA | -0.038
48 | CAAGGGTG | -0.054
49 | GGAACGAA | -0.0222
50 | ACCCCTTA | -0.107
51 | GTGTAAGA | -0.0552
52 | CTAGAGAG | -0.271
53 | CTACCGTC | -0.075
54 | AACGGATC | 0.187
55 | CGATTAGC | 0.0495
56 | ATCATTCA | 0.162
57 | CGCTAGAG | -0.0995
58 | AGGACACT | -0.206
59 | ACCGAGCC | 0.0219
60 | TACTAGGA | -0.0275
61 | CCAATCGG | -0.136
62 | CTCATCCA | 0.133
63 | TTGGGAAA | -0.0776
64 | ATCTTACA | -0.115
65 | CCCGGTAG | -0.00715
66 | AGAAAAGC | -0.173

Row | Sequence | PBM E-score
67 | GACGAGAA | 0.0532
68 | GGCGCACA | 0.00673
69 | CGTAAAGC | -0.228
70 | TAATATCA | 0.0581
71 | GCCGACGA | 0.113
72 | ACGTAGAC | -0.255
73 | CGATTCGC | 0.204
74 | ACAGTAGC | 0.0517
75 | GATTGCAA | 0.0914
76 | AGATGCGC | -0.136
77 | ACTATAAC | 0.0602
78 | CGAACTAC | 0.131
79 | CTGAGAGC | -0.118
80 | AGAGGTCC | -0.0223
81 | AAATCTTA | -0.0819
82 | CTTTCGTC | -0.108
83 | ACTATTCG | -0.0421
84 | CTGACATA | 0.0321
85 | CGGCACTA | 0.0421
86 | CCAAGAAG | -0.144
